The values that follow come from paper PMC3526545, “New perspectives for natural antimicrobial peptides: application as antinflammatory drugs in a murine model” (BMC Immunology, 2012).

In this assay the test system is Staphylococcus epidermidis strains. In words: Antibiotic susceptibility, disk diffusion method on Mueller-Hinton agar. Type of assay: cell-based. The following applies: disk diffusion, Mueller-Hinton agar, NCCLS guidelines. A general note: A growth-free zone around the sample is the usual read-out of agar diffusion tests.
[1] abbreviates: strain SE, disk content as in antibiotic code.

As to `CO[C@@H]1[C@@H](OC(N)=O)[C@@H](O)[C@H](Oc2ccc3c(O)c(NC(=O)c4ccc(O)c(CC=C(C)C)c4)c(=O)oc3c2C)OC1(C)C` [NB30, novobiocin], the antibiotic susceptibility test result (strain 2/2) is given as “S”; the antibiotic susceptibility test entry (strain 3/28) is given as “S”; the antibiotic susceptibility test result (strain 5/6) was “S”; the antibiotic susceptibility test result (strain 5/8) is on record as “S”; the antibiotic susceptibility test entry (strain 5/25) is recorded as “S”; the antibiotic susceptibility test result (strain 9/1) is “S”. Also, the antibiotic susceptibility test result is “S” (strain 10/28), “S” (strain 12/14), “S” (strain 12/26) and “R” under setting [1].

For `CO[C@@]1(NC(=O)Cc2cccs2)C(=O)N2C(C(=O)O)=C(COC(N)=O)CS[C@@H]21` [FOX30, cefoxidin], the antibiotic susceptibility test result reads like this: (strain 2/2) “R”; (strain 3/28) “S”; (strain 5/6) “I”; (strain 5/8) “I”; (strain 5/25) “S”; (strain 9/1) “S”. Also, the antibiotic susceptibility test result (strain 10/28) was “S”, the antibiotic susceptibility test entry (strain 12/14) is “S”, the antibiotic susceptibility test result (strain 12/26) is “S” and the antibiotic susceptibility test result under setting [1] is given as “I”.

`CC1(C)S[C@@H]2[C@H](NC(=O)C(C(=O)O)c3ccccc3)C(=O)N2[C@H]1C(=O)O` (stereo partly drawn) [CB100, carbenicillin]: the antibiotic susceptibility test entry runs as follows: (strain 2/2) “R”; (strain 3/28) “R”; (strain 5/6) “I”; (strain 5/8) “I”; (strain 5/25) “R”; (strain 9/1) “I”. Besides, the antibiotic susceptibility test entry reads like this: (strain 10/28) “R”; (strain 12/14) “I”; (strain 12/26) “R”; under setting [1], “R”.

On to `CNC(C)C1CCC(N)C(OC2C(N)CC(N)C(OC3OCC(C)(O)C(NC)C3O)C2O)O1` (stereo not drawn) [Gentamicin, gentamicin], for which the antibiotic susceptibility test result reads like this: (strain 2/2) “I”; (strain 3/28) “R”; (strain 5/6) “I”; (strain 5/8) “R”; (strain 5/25) “I”; (strain 9/1) “I”. Also, the antibiotic susceptibility test entry runs as follows: (strain 10/28) “R”; (strain 12/14) “R”; (strain 12/26) “R”; under setting [1], “R”.

On to `CC(=O)O[C@H]1C[C@@]2(C)[C@@H](C[C@@H](O)[C@H]3[C@@]4(C)CC[C@@H](O)[C@@H](C)[C@@H]4CC[C@@]32C)/C1=C(\CCC=C(C)C)C(=O)O` [FD10, fusidic acid], for which the antibiotic susceptibility test entry (strain 2/2) was “S”; the antibiotic susceptibility test result (strain 3/28) is given as “R”; the antibiotic susceptibility test entry (strain 5/6) is recorded as “I”; the antibiotic susceptibility test entry (strain 5/8) is on record as “S”; the antibiotic susceptibility test entry (strain 5/25) is listed as “S”; the antibiotic susceptibility test result (strain 9/1) is given as “S”. In addition, the antibiotic susceptibility test entry is listed as “S” (strain 10/28), “S” (strain 12/14), “S” (strain 12/26) and “R” under setting [1].

For `C[C@@H](O)[C@H]1C(=O)N2C(C(=O)O)=C(SCCN=CN)C[C@H]12` [IPM10, imipenem], the antibiotic susceptibility test entry (strain 2/2) was “S”; the antibiotic susceptibility test entry (strain 3/28) is given as “S”; the antibiotic susceptibility test entry (strain 5/6) is “S”; the antibiotic susceptibility test entry (strain 5/8) is “S”; the antibiotic susceptibility test entry (strain 5/25) is on record as “S”; the antibiotic susceptibility test entry (strain 9/1) is reported as “S”. Besides, the antibiotic susceptibility test result is recorded as “S” (strain 10/28), “S” (strain 12/14), “S” (strain 12/26) and “S” under setting [1].

With `CC1(C)S[C@@H]2[C@H](NC(=O)[C@H](NC(=O)N3CCN(S(C)(=O)=O)C3=O)c3ccccc3)C(=O)N2[C@H]1C(=O)O` [MZ75, mezlocillin], the antibiotic susceptibility test entry was “R” (strain 2/2); “S” (strain 3/28); “R” (strain 5/6); “R” (strain 5/8); “R” (strain 5/25); “R” (strain 9/1). In addition, the antibiotic susceptibility test entry is, setting by setting: (strain 10/28) “R”; (strain 12/14) “R”; (strain 12/26) “R”; under setting [1], “R”.

Regarding `C[C@@H]1O[C@@H]1P(=O)(O)O` [FF50, fosfomycin], the antibiotic susceptibility test result by setting is: (strain 2/2) “R”; (strain 3/28) “R”; (strain 5/6) “R”; (strain 5/8) “S”; (strain 5/25) “I”; (strain 9/1) “S”. In addition, the antibiotic susceptibility test result is, setting by setting: (strain 10/28) “S”; (strain 12/14) “R”; (strain 12/26) “S”; under setting [1], “S”.

As for `CC1(C)S[C@@H]2[C@H](NC(=O)Cc3ccccc3)C(=O)N2[C@H]1C(=O)O` [P10, penicillin-G], the antibiotic susceptibility test entry was “R” (strain 2/2); “R” (strain 3/28); “R” (strain 5/6); “R” (strain 5/8); “R” (strain 5/25); “R” (strain 9/1). Besides, the antibiotic susceptibility test result by setting is: (strain 10/28) “R”; (strain 12/14) “R”; (strain 12/26) “R”; under setting [1], “R”.

Regarding `CC1(C)S[C@@H]2[C@H](NC(=O)[C@H](N)c3ccc(O)cc3)C(=O)N2[C@H]1C(=O)O` [AMX25, amoxicillin], the antibiotic susceptibility test entry by setting is: (strain 2/2) “R”; (strain 3/28) “S”; (strain 5/6) “I”; (strain 5/8) “I”; (strain 5/25) “R”; (strain 9/1) “R”. In addition, the antibiotic susceptibility test entry is listed as “R” (strain 10/28), “R” (strain 12/14), “R” (strain 12/26) and “R” under setting [1].

Consider `CN(C)[C@@H]1C(O)=C(C(N)=O)C(=O)[C@@]2(O)C(O)=C3C(=O)c4c(O)cccc4[C@@](C)(O)[C@H]3[C@H](O)[C@@H]12` [T30, oxytetracycline], for which the antibiotic susceptibility test result is, setting by setting: (strain 2/2) “S”; (strain 3/28) “S”; (strain 5/6) “S”; (strain 5/8) “R”; (strain 5/25) “S”; (strain 9/1) “S”. Also, the antibiotic susceptibility test entry is, setting by setting: (strain 10/28) “R”; (strain 12/14) “R”; (strain 12/26) “S”; under setting [1], “I”.

As for `O=C(Cc1cccs1)N[C@@H]1C(=O)N2C(C(=O)[O-])=C(C[n+]3ccccc3)CS[C@H]12` [CD30, cephaloridine], the antibiotic susceptibility test entry runs as follows: (strain 2/2) “R”; (strain 3/28) “S”; (strain 5/6) “R”; (strain 5/8) “R”; (strain 5/25) “R”; (strain 9/1) “R”. Also, the antibiotic susceptibility test entry is, setting by setting: (strain 10/28) “R”; (strain 12/14) “R”; (strain 12/26) “R”; under setting [1], “R”.

With `CCN[C@@H]1C[C@H](N)[C@@H](O[C@H]2OC(CN)=CC[C@H]2N)[C@H](O)[C@H]1O[C@H]1OC[C@](C)(O)[C@H](NC)[C@H]1O` [NET30, netilmycin], the antibiotic susceptibility test result (strain 2/2) is on record as “I”; the antibiotic susceptibility test result (strain 3/28) is given as “I”; the antibiotic susceptibility test result (strain 5/6) was “I”; the antibiotic susceptibility test entry (strain 5/8) is “I”; the antibiotic susceptibility test entry (strain 5/25) is “I”; the antibiotic susceptibility test result (strain 9/1) is “S”. Moreover, the antibiotic susceptibility test entry was “I” (strain 10/28), “I” (strain 12/14), “I” (strain 12/26) and “R” under setting [1].

Regarding `O=C1CN(/N=C/c2ccc([N+](=O)[O-])o2)C(=O)N1` [FM300, nitrofurantoin], the antibiotic susceptibility test result reads like this: (strain 2/2) “S”; (strain 3/28) “S”; (strain 5/6) “S”; (strain 5/8) “S”; (strain 5/25) “S”; (strain 9/1) “S”. Besides, the antibiotic susceptibility test result is, setting by setting: (strain 10/28) “S”; (strain 12/14) “S”; (strain 12/26) “S”; under setting [1], “R”.

`CC(C)(O/N=C(\C(=O)N[C@@H]1C(=O)N2C(C(=O)[O-])=C(C[n+]3ccccc3)CS[C@H]12)c1csc(N)n1)C(=O)O` [CAZ30, ceftazidime]: the antibiotic susceptibility test entry runs as follows: (strain 2/2) “I”; (strain 3/28) “I”; (strain 5/6) “S”; (strain 5/8) “I”; (strain 5/25) “I”; (strain 9/1) “I”. For the same molecule, the antibiotic susceptibility test result (strain 10/28) is given as “I”, the antibiotic susceptibility test result (strain 12/14) is on record as “S”, the antibiotic susceptibility test result (strain 12/26) is recorded as “I” and the antibiotic susceptibility test result under setting [1] is listed as “S”.
